Source: PubChem BioAssay AID493208 (National Center for Advancing Translational Sciences (NCATS), 2011)
Hit rate of the full screen: of about 44,000 compounds, about 340 (0.77%) were called active. Roughly 5% stayed inconclusive and do not appear here. The call rests on the fitted dose curve; in most records, active means well fitted inhibition curve with a large enough effect; inconclusive means small, poorly fitted or top-dose-only effect; inactive means flat fitted curve, though single readings scatter. This is one part of the list.

Assay: Acumen qHTS Assay for Inhibitors of the mTORC1 Signaling Pathway in MEF (Tsc2-/-, p53-/-) Cells: Sytravon; further: nearly all actives have a fitted effect of over 50% in size
Details: phospho-rpS6 immunofluorescence/PI, 24 h; series mostly up to 38.3 µM; activity change, negative = inhibition: at the top concentration
How it was run: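 Readout is phospho-S6 Alexa 488 signal normalized to PI per well, reported as % active cells with thresholds set from rapamycin (7.5 nM) and DMSO controls. Cells: Tsc2-/-, p53-/- MEFs, 24 hrs compound at 37 C; PI cell number serves as viability.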

Activity change, negative = inhibition, inactive:
COc1ccc(-c2nc3sc(CCNS(=O)(=O)c4c(C)cc(C)cc4C)c(C)n3n2)cc1 0.206%, COc1cc(Cl)c(C)cc1Nc1nnc(-n2nc(C)cc2C)c2ccccc12 0%, CCc1cccc(NC(=O)C(Cc2ccccc2)NS(=O)(=O)c2ccc3c(c2)c(=O)n(C)c(=O)n3C)c1 (stereo unspecified) -6.72%, Cc1cc(SCC(=O)Nc2nsc(-c3ccc(C(C)(C)C)cc3)n2)nc2ccccc12 -11.8%, COc1cccc(N2CCN(C(=O)c3c4c(nc5ccccc35)C(=O)N(C3CCCCC3)C4)CC2)c1 4.97%, COc1cccc(NC(=O)C2CCCN2S(=O)(=O)c2ccc3nc(-c4ccccc4)[nH]c3c2)c1 (stereo unspecified) -3.94%, COc1ccc(OCc2nc(C#N)c(NCc3ccccc3Cl)o2)cc1 -14.1%, CC(=O)Nc1cccc(NC(=O)Cc2csc(COc3cccc(C)c3)n2)c1 -0.687%, CCOC(=O)N1CCc2c(sc3c2c(=O)n(-c2ccc(CC)cc2)c(=O)n3Cc2cccc(OC)c2)C1 1.81%, CCOc1ccc(C(=O)Nc2ccc3c(c2)N(C(C)=O)CCC3)cc1OCC 22.9%, CCc1ccc(S(=O)(=O)N(C(C)=O)c2ccc3oc4c(c3c2)CCCC4)cc1 -16.3%, CCC(C(=O)Nc1cc(C)ccc1OC)n1nnc(C(=O)OC)c1C(=O)OC (stereo unspecified) 5.86%, CCOc1ccc(C2c3c(oc4cc(C)c(C)cc4c3=O)C(=O)N2c2ccccn2)cc1 (stereo unspecified) -0.551%, COc1ccc(NS(=O)(=O)c2ccc3c(c2)NC(=O)CCS3)c(OC)c1 -14.2%, Cc1ccc(-n2nc3c(N4CCC(C(=O)N(C)Cc5ccccc5)CC4)nnc(C)c3c2C)cc1 -0.65%, Cc1ccc(C)c(S(=O)(=O)n2nc(C)c(S(=O)(=O)N3CCC(C)CC3)c2C)c1 -1.83%, CC(=O)Nc1ccc(S(=O)(=O)Nc2nc3n(n2)C(c2ccccc2)C=C(c2ccc(Cl)cc2)N3)cc1 (stereo unspecified) -0.133%, O=C(NCCN1CCCCC1)c1ccc(Cn2c(SCc3ccc(F)cc3)nc3cccnc32)cc1 -9.67%, CN(C)c1ccc(CN(Cc2ccco2)C(=O)c2ccc(F)cc2)cc1 -13.1%, COc1ccccc1CNC(=O)CCC(=O)N1Cc2ccccc2Oc2ncccc21 -0.0545%, Cc1oc(-c2ccccc2Cl)nc1CS(=O)(=O)CC(=O)NC(C)CCc1ccccc1 (stereo unspecified) 6.21%, COc1ccc(C(=O)Nc2nc3nc(C)c(Cl)c(=O)n3[nH]2)cc1 -1.1%, Cc1ccc2nc(Cl)c3cc(C(=O)NC4CCCCC4)sc3c2c1 -19.6%, COc1ccc(OC)c(NC(=O)C(NS(=O)(=O)c2ccc3c(c2)CCCC(=O)N3)C(C)C)c1 (stereo unspecified) 0.253%, COc1ccc(NC(=O)CC2C(=O)N(c3cccc(OC)c3)C(=O)N2Cc2cccnc2)cc1 (stereo unspecified) 0.542%, CCOC(=O)c1ccc(NC(=O)c2nsc3ccccc23)cc1 -3.86%, CN1CCc2nc3sc(C(=O)Nc4c(F)cccc4F)c(N)c3cc2C1 -5.37%, CCOc1ccc(NC(=O)Cn2c(=O)c(CNc3ccc(OC)cc3)cc3ccc(OC)cc32)cc1 -3.8%, Cc1ccc(-c2cnc(NCc3c(F)cccc3Cl)n2C)cc1 -25.6%, CCOC(=O)c1cc(S(=O)(=O)N2CCN(c3cc(Cl)ccc3C)CC2)[nH]n1 0.885%, CCc1ccc(OCC(=O)Nc2c(C(=O)c3ccccc3)oc3ccccc23)cc1 12%, Cc1cc(=O)n2nc(N3CCC(C(=O)NCc4ccccc4Cl)CC3)sc2n1 0.527%, Cc1nc(-c2cccc(S(=O)(=O)N3CCC(C(=O)NCc4ccccc4)CC3)c2)no1 -3.65%, Cc1ccccc1NC(=O)CCc1c(C)nc2c(c1C)c(=O)n(C)c(=O)n2C -0.0801%, CCCN(C(=O)Cn1cnc2sc(C)c(S(=O)(=O)N3CCN(c4ncccn4)CC3)c2c1=O)c1cccc(C)c1 1.48%, COc1cccc(NC(=O)c2nnn(Cc3cccc(C(F)(F)F)c3)c2N)c1 -16.2%, COc1ccc(NS(=O)(=O)c2ccc3c(c2)oc(=O)n3C)cc1Cl -2.34%, COc1ccc(OC)c(S(=O)(=O)Nc2ccc3[nH]c(=O)[nH]c3c2)c1 -1.53%, Cc1cccc(CN2C(=O)c3ccccc3S(=O)(=O)c3ccc(C(=O)N4CCCC4)cc32)c1 -4.75%, CCn1ccc2cc(S(=O)(=O)N3CCCN(C(=O)Nc4ccc(C)cc4)CC3)ccc21 -4.87%, Cc1cc(C)cc(N(C)S(=O)(=O)c2nnc(NC(=O)COc3ccc(Cl)cc3)s2)c1 5.23%, CC(=O)c1cccc(NC(=O)CN2C(=O)CN(C)C(=O)c3ccccc32)c1 -2.51%, Cc1cccc(Cn2c(-c3cccs3)nc3ccccc32)c1 -12.7%, Cn1c(=O)c2c(nc(SCC(=O)Nc3ccc(F)cc3)n2Cc2ccc(Cl)cc2)n(C)c1=O 1.01%, CCOc1ccc(Cn2c(CNS(=O)(=O)c3cccs3)nc3cccnc32)cc1 -7.31%, Cc1ccc(N2CCN(c3cc(C)nc4c(-c5ccc(Cl)cc5)c(C)nn34)CC2C)cc1 (stereo unspecified) 4.65%, NC(=O)Cn1c(=O)n(-c2ccc(F)c(Cl)c2)c(=O)c2sc3ccccc3c21 -19.3%, CCc1nc(SCc2cc(=O)c3cc(F)ccc3[nH]2)n[nH]1 0%, CCOc1ccc(NC(=O)c2ccc3c(c2)c(C)c(C)n3Cc2ccc(F)cc2)cc1 -1.21%, Cc1cn2c(=O)c(S(=O)(=O)NC(C)c3ccccc3)c(C)nc2s1 (stereo unspecified) -2.72%, Cc1ccc(NC(=O)Cn2ncc3c4ccccc4n(Cc4ccccc4)c3c2=O)cc1Cl -0.953%, Cc1ccc(C)c2sc(N3CCN(C(=O)c4ccco4)CC3)nc12 -3.58%, COc1ccc(N2CCN(C(=O)c3c(C)oc4nc(C)nc(N5CCCC5)c34)CC2)cc1 -1.19%, Cc1ccc(N(C)S(=O)(=O)c2c(-c3ccccc3)csc2C(=O)O)cc1 -6.23%, Cc1cc2nc(-c3cccc(NC(=O)COc4ccc(C(C)C)cc4)c3)oc2cc1C -1.4%, COc1ccc(-c2nc(C)c(CCNC(=O)c3cccs3)s2)cc1 -6.47%, Cc1ccccc1-c1nnc(SCC(=O)N2CCCc3ccccc32)o1 -20.8%, CCCNC(=O)c1c(NC(=O)c2ccccc2F)sc2c1CCCCC2 -13.4%, Cc1nc(-c2ccc(S(=O)(=O)Nc3ccc(OC(F)(F)F)cc3)cc2)co1 -8.07%, CC(C)c1ccc(N2C(=O)CSC23C(=O)N(Cc2ccccc2F)c2ccccc23)cc1 (stereo unspecified) 1.99%, Cc1ccc(NC(=O)N2CCC(CN3CCCCCC3)CC2)c(Cl)c1 -1.65%, Cc1cccc(C(=O)OCc2cc(=O)n3nc(C4CC4)sc3n2)c1 -1.28%, Cc1ccc(-c2nc(C(=O)Nc3cccc(C#N)c3)c3n2CCCCC3)cc1 -22.8%, COc1ccc(-c2nc(SCC(=O)Nc3ccc4c(c3)OCO4)c(-c3ccc(F)cc3)[nH]2)cc1OC -11%, O=C1c2ccccc2C(=O)C1(c1ccccc1)N1CCN(c2cccc(C(F)(F)F)c2)CC1 0.751%, CCOc1ccccc1NC(=O)CCc1nc(-c2cccc(C)c2)no1 4.81%, CC(C)Oc1ccc(CNS(=O)(=O)c2csc(C(N)=O)c2)cc1 -21.3%, Cc1nc2nncn2c(Nc2ccc(F)cc2)c1C -19%, COc1ccc(Cl)cc1NC(=O)c1cc2ccccn2n1 -1.12%, CCC(=O)N1CCc2cc(S(=O)(=O)NCCC(=O)NCc3ccc(OC)cc3)ccc21 -5.21%, COc1cccc(-n2c(=O)c3sccc3n(Cc3cc(=O)n4cc(Cl)ccc4n3)c2=O)c1 7.57%, Cc1ccc(-c2nc(CCNC(=O)C(=O)Nc3ccc(F)cc3F)cs2)cc1 3.92%, Cc1ccc2c(c1)N(CC(=O)NCCCN1CCCCC1)C(=O)c1cccnc1O2 2.28%, COc1ccccc1NCc1nnc2n1CCCCC2 1.39%, COc1ccccc1CNC(=O)CCCN1C(=O)CCn2nc(-c3cn(C)c4ccccc34)cc21 -2.24%, CC(C)C(=O)Nc1c(C(=O)N2CCN(c3ccccc3F)CC2)oc2ccccc12 1.34%, Fc1ccc(C(c2nnc(-c3ccccc3)o2)N2CCN(c3ccccc3)CC2)c(Cl)c1 (stereo unspecified) -13.6%, Cc1ccc(-c2nc3sc(CCNC(=O)c4ccco4)c(C)n3n2)cc1 -3.13%, COc1cc(Cl)c(C)cc1NC(=O)c1nn(-c2ccc(C)cc2)c(=O)n(C)c1=O -2.48%, Cc1ccc(CSc2nc3ccncc3n2Cc2nc(-c3ccc(Cl)cc3)oc2C)cc1 -7.15%, CCOc1ccc(N2CC(NC(=O)c3cc4ccccc4o3)CC2=O)cc1 (stereo unspecified) -6.31%, COc1cccc(NC(=O)CSc2c(C)cnc3c2c(=O)n(C)c(=O)n3C)c1 -8.76%, CCCOC(=O)c1c(NC(=O)c2cc3nc(-c4ccc(OC)cc4)cc(C(F)(F)F)n3n2)sc2c1CCCC2 17.1%, CCOC(=O)c1ccc(NC(=O)C(=O)NCCc2ccc(OC)cc2)cc1 2.32%, Cc1ccc(C)c(NC(=O)Cn2c(-c3nonc3N)nc3ccccc32)c1 -18.3%, COc1ccc2oc(=O)c(C(=O)N3CCN(c4cc(Cl)ccc4Cl)CC3)cc2c1 -3.44%, CCCC(=O)Nc1cccc(-c2nc3ncccc3o2)c1 4.43%, COc1ccccc1N1CCN(C(=O)c2cnn(C(C)(C)C)c2C2CCN(C(=O)OC(C)(C)C)CC2)CC1 -4.5%, CCOC(=O)C1CCN(c2nc3c(S(=O)(=O)c4ccc(CC)cc4)nnn3c3ccc(Cl)cc23)CC1 -3.35%, Cc1cccn2c(=O)c3cc(C(=O)NC(C)(C)C)n(C)c3nc12 -2.59%, CC(=O)c1ccc(NC(=O)C2CCCN(S(=O)(=O)c3ccc(Br)s3)C2)cc1 (stereo unspecified) -0.567%, CCOc1ccc(NC(=O)c2sc3nc4n(c(=O)c3c2C)CCCC4)cc1 0.746%, Cc1cc(Cl)ccc1NC(=O)CS(=O)(=O)c1cccc2nsnc12 -3.85%, CCOC(=O)c1ccc(NC(=O)C2CCN(S(=O)(=O)Cc3ccccc3)CC2)cc1 -9.13%, CCOc1ccc(N(CC)C(=O)c2cc3c(s2)-c2ccc(Cl)cc2SC3)cc1 -7.61%, Cc1ccn2c(Nc3ccc4c(c3)OCO4)c(-c3ccc(C)o3)nc2c1 -4.58%
